One experiment has as its target FZD7 CRD, Fc-tagged (human, UniProt O75084 part only). The experiment is described as follows: BLI (Octet): FZD-Fc captured on the sensor, 100 nM binder, 300 s association, 300 s dissociation. (In general: BLI is a label-free optical method that tracks binding on a fibre tip over time.)
Experiment [1] deals with LRP6 on HEK293/HEK293T reporter cells (UniProt O75581 20-1613, limits assumed). The experiment is described as follows: cell-based or functional assay.
In a further experiment the target is T1, FZD5 CRD, Fc-tagged (human, UniProt Q13467 27-167).
T1 construct: domain: CRD; Bought; also called FZD5 ECD; not shown: Fc tag of the purchased fusion
T1 sequence (looked up): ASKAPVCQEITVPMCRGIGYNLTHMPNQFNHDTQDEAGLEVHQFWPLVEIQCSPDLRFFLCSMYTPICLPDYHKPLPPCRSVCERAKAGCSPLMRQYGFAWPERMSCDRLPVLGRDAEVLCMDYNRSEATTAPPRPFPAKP
In words: BLI (Octet): FZD-Fc captured on the sensor, 100 nM binder, 300 s association, 300 s dissociation.

In the next experiment the target is T2, FZD4 CRD, Fc-tagged (human, UniProt Q9ULV1 37-180).
T2 construct: domain: CRD; Bought; also called FZD4 ECD; not shown: Fc tag of the purchased fusion
T2 sequence (looked up): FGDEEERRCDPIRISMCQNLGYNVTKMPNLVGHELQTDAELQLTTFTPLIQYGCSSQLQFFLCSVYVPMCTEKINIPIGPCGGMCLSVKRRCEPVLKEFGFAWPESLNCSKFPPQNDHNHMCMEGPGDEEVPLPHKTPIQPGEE
The description is as above.

Results on two molecules are retold here after US20210032352A1 (ANTERA THERAPEUTICS, published 2021).

Chain of UniProt O75581 (O75581 20-1613 limits assumed): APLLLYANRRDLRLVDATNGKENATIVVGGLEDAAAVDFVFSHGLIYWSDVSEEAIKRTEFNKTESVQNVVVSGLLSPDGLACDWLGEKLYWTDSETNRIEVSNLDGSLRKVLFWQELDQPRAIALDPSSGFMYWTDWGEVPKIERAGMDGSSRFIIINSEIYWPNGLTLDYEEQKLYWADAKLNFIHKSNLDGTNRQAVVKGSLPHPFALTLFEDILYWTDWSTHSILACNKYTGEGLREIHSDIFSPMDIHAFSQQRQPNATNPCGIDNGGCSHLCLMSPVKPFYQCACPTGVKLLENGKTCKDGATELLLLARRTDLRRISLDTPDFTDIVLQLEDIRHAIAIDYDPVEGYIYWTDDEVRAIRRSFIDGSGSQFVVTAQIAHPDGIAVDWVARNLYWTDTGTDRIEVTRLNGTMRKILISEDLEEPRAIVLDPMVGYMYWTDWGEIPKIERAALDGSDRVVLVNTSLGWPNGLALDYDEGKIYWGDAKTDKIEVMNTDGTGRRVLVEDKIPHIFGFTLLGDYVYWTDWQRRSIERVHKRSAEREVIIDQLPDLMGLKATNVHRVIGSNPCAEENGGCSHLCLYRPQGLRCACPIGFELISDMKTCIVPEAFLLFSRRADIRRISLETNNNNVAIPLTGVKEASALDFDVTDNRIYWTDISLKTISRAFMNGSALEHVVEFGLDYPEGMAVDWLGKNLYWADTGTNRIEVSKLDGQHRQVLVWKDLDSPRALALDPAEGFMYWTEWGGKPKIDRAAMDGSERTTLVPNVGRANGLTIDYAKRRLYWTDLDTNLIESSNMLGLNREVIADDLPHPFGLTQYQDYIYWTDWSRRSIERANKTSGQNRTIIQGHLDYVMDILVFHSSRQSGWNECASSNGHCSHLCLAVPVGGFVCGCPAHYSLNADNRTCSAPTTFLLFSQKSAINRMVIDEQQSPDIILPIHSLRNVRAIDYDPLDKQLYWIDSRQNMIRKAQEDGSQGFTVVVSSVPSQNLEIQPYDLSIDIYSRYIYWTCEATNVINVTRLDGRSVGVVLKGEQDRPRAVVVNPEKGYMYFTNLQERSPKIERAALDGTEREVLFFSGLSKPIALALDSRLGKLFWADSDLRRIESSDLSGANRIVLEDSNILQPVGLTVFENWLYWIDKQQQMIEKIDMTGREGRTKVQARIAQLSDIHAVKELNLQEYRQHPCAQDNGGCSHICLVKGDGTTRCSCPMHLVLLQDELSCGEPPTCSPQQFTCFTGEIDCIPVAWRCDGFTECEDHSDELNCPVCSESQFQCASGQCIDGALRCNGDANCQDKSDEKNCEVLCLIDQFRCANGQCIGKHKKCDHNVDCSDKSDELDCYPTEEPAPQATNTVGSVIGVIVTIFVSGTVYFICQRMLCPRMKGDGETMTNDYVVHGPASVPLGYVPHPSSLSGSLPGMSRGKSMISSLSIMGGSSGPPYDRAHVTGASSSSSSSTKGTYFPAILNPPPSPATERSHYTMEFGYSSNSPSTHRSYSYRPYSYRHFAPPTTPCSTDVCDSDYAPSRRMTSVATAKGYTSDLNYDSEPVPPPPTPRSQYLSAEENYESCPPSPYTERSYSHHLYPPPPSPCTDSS

B1: 5019-Fc-2542 (bispecific antibody)
chain: EVQLVESGGGLVQPGGSLRLSCAASGFNIGSSSIHWVRQAPGKGLEWVASIYSAFASTSYADSVKGRFTISADTSKNTAYLQMNSLRAEDTAVYYCARYHFPFGFALDYWGQGTLVTVSSGGGGSDIQMTQSPSSLSASVGDRVTITCRASQSVSSAVAWYQQKPGKAPKLLIYSASSLYSGVPSRFSGSRSGTDFTLTISSLQPEDFATYYCQQGVYLFTFGQGTKVEIKLEDKTHTKV[human IgG1 Fc with C220S (EU numbers) not printed]SGSETPGTSESATPESGGGEVQLVESGGGLVQPGGSLRLSCAASGFNISSYYIHWVRQAPGKGLEWVASIYSSYGYTSYADSVKGRFTISADTSKNTAYLQMNSLRAEDTAVYYCARTVRGSKKPYFSGWAMDYWGQGTLVTVSSGGGGSDIQMTQSPSSLSASVGDRVTITCRASQSVSSAVAWYQQKPGKAPKLLIYSASSLYSGVPSRFSGSRSGTDFTLTISSLQPEDFATYYCQQYYWPITFGQGTKVEIK
notes: Homodimer on wild-type human IgG1 Fc; also called F^P+P-L6^1+1
Turning to B1, the binding result with FZD7 CRD, Fc-tagged is listed as “binds”. For the same molecule, the “pBAR luciferase reporter, activation over background” value in experiment [1] was approximately 20 fold over background.

B2: 5019-Fc-2539 (bispecific antibody, human IgG1)
chain: EVQLVESGGGLVQPGGSLRLSCAASGFNIGSSSIHWVRQAPGKGLEWVASIYSAFASTSYADSVKGRFTISADTSKNTAYLQMNSLRAEDTAVYYCARYHFPFGFALDYWGQGTLVTVSSGGGGSDIQMTQSPSSLSASVGDRVTITCRASQSVSSAVAWYQQKPGKAPKLLIYSASSLYSGVPSRFSGSRSGTDFTLTISSLQPEDFATYYCQQGVYLFTFGQGTKVEIKLEDKTHTKV[human IgG1 Fc with C220S (EU numbers) not printed]SGSETPGTSESATPESGGGEVQLVESGGGLVQPGGSLRLSCAASGFNISYSSIHWVRQAPGKGLEWVAYISSYYGYTYYADSVKGRFTISADTSKNTAYLQMNSLRAEDTAVYYCARAHYFPWAGAMDYWGQGTLVTVSSGGGGSDIQMTQSPSSLSASVGDRVTITCRASQSVSSAVAWYQQKPGKAPKLLIYSASSLYSGVPSRFSGSRSGTDFTLTISSLQPEDFATYYCQQYSWGPFTFGQGTKVEIK
notes: Homodimer on wild-type human IgG1 Fc; also called F^P+P-L6^3+3
B2: the binding result is recorded as “binds” with FZD7 CRD, Fc-tagged; “binds” in the experiment with FZD5 CRD, Fc-tagged; “binds” in the experiment with FZD4 CRD, Fc-tagged. Besides, in experiment [1], the “pBAR luciferase reporter, activation over background” value was approximately 200 fold over background.
